Measured values as given in PubChem BioAssay AID2202238 (Ras Initiative Chemistry Research Team, Frederick National …, 2025).
In all, about 2,200 compounds went through this assay and fewer than 10 were called active. This is one part of the list. The source made no clear call on entries shown without one.

Each molecule was assayed against GTPase KRas (Homo sapiens) (UniProt P01116) (assay: Cysteine mutants labelled by reactive fragments (mass read-out) (AID 2202238)). Settings: KRAS G12D cysteine mutants, disulfide tethering, MALDI-TOF labeling; stronger effect = higher value; H27C mutant labeling; fragment at 500 µM.
Parameters: protein at 5 µM with 500 µM competing thiol for 1.5 h

Chain of UniProt P01116 (P01116 whole entry, looked up, the tested form may be a part): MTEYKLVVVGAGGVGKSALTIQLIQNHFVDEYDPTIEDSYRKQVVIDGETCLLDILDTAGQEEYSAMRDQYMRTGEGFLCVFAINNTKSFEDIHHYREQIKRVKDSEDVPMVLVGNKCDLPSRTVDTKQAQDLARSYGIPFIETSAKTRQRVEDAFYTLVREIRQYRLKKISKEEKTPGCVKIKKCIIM

Structure (SMILES)	percent labeling [%]
Cn1c(-c2ccccc2)c(C(=O)NCCS)c2ccccc21	37.3
O=C(NCCS)C1CC(O)CN1C(=O)Cc1ccccc1F (stereo unspecified)	31.8
CC(C)(C)OC(=O)NC1CCC2(CC1)CN(C(=O)CCS)CCO2 (stereo unspecified)	30.1
Cc1ccc(S(=O)(=O)C2CCN(C(=O)CCS)CC2)cc1	44.2
O=C(CCS)NC1CCN(CC(=O)N2CCOCC2)CC1	18.3
Cc1cc(=O)n(CCNC(=O)CCS)cn1	24.5
O=C(COc1ccc2c3c(c(=O)oc2c1)CCC3)NCCS	21.7
Cc1cc(C2(NC(=O)CCS)CCOCC2)on1	40.2
O=C(NCCS)c1cn2c(n1)CCCC2	37.7
O=C(Cc1c(Cl)cccc1Cl)NCCS	33
O=C(CCS)NCc1ccc2c(c1)C(=O)NC2	34.3
O=C(CCS)Nc1cccc(-c2ncc3n2CCCC3)c1	49.1
O=C(CCS)Nc1cccn(CCCn2ccnc2)c1=O	44.6
Cc1cc(NC(=O)C2CC2)sc1C(=O)NCCS	38
O=C(CCc1ccc(-c2ccccc2)o1)NCCS	19.9
Cc1ccc(-c2nc(CC(=O)NCCS)cs2)cc1	26.7
O=C(CCCn1ccc2cc(Cl)ccc21)NCCS	23.1
O=C(NCCS)c1cc(Cl)ccc1-n1cnnn1	31.7
CC1(C)Cc2cccc(NC(=O)CCS)c2O1	35.9
COC(=O)c1ccc(CN(C)C(=O)CCS)nc1	32.4
O=C(N[C@@H](Cc1cnc[nH]1)C(=O)NCCS)C1CCCCC1	31.5
Cc1cc(C(=O)NCCS)cc(NCC(F)(F)F)n1	47.1
CN1CCC(n2nccc2NC(=O)CCS)CC1	40
O=C(NCCS)c1ccc2scc(Br)c2c1	39.5

Structure (SMILES)	percent labeling [%]
O=C(CCS)NC1(c2ccc(F)cc2)CCOCC1	39.6
O=C(CCS)N1CCC(N2CC(O)C2)CC1	40.3
Cc1c(C2CC2)nc2ccc(Br)cc2c1C(=O)NCCS	19.2
O=C(CCS)N1CCOc2c(Cl)cc(Br)cc2C1	28.6
CCN1CCC(N(C)C(=O)CCC(=O)NCCS)CC1	39.3
O=C(CCS)NCC1CCC(c2ccccc2)CC1 (stereo unspecified)	27.5
CC(C)c1nc(Cn2cc(C(=O)NCCS)ccc2=O)cs1	31.2
Cc1nn(Cc2ccccc2)c2ncc(NC(=O)CCS)cc12	29.3
CNC(=O)Cn1ccc(NC(=O)CCS)n1	36.6
CN(C(=O)CCS)C1CCN(c2ccccc2)CC1	33.1
COc1cccc(C2C(c3ccccc3)CCN2C(=O)CCS)c1 (stereo unspecified)	24.3
O=C(NCCS)c1ccnn1CCC(F)(F)F	35.4
O=C(NCCS)C1(c2ccc(Cl)cc2)CCCC1	29
CN(C(=O)C1CCCN(C(=O)CCS)C1)c1ccccn1 (stereo unspecified)	41.8
O=C(CCS)NCc1n[nH]c(=O)n1C1CC1	35.5
Cc1cnn(-c2ccc(C(=O)NCCS)cc2)c1	19.2
O=C(CCS)Nc1cccc(-n2nn[nH]c2=O)c1	20.5
O=C(CCS)NCCOc1ccc(Cl)c(Cl)c1	35.7
O=C(CCS)Nc1cnn(-c2ncccc2Cl)c1	44
O=C(NCCS)c1sccc1-n1ccnn1	42.9
Cc1c(NC(=O)CCS)c(=O)n(C2CCCCC2)n1C	29.7
CCC1(C(=O)NCCS)CCN(C(=O)c2ccccc2)CC1	35.5
O=C(CCS)NC(Cn1ccnc1)c1ccccc1 (stereo unspecified)	36.8
Cc1nc(N2CCOCC2)sc1CN(CC1CN(C)CCO1)C(=O)CCS (stereo unspecified)	33.5

Structure (SMILES)	percent labeling [%]
O=C(CCS)NCCCN1C(=O)NC2(CCC2)C1=O	34.5
Cn1c(CNC(=O)CCS)nnc1C1CC1	27.8
O=C(CCS)N1CCC2(CC1)CC2c1nc(-c2cccc(Cl)c2)no1 (stereo unspecified)	33.4
O=C(Cc1cnn(-c2ccccc2)c1)NCCS	27.7
CCC(C)C(NC(=O)Nc1cc(C)ccc1C)C(=O)NCCS (stereo unspecified)	8.4
CN(CC(=O)NCCS)c1ccc(C#N)cc1F	33
O=C(CCS)Nc1ccc2c(n1)OCCO2	48.2
N#CC1CN(C(=O)CCS)CC12C(=O)Nc1ccccc12 (stereo unspecified)	47.4
O=C(CCS)NCCNC(=O)c1ccc(F)cc1	29.4
O=C(NCCS)c1c(Cl)cccc1OCC1CC1	28.2
CCOc1cccc2[nH]c(C(=O)NCCS)cc12	33
CN(C)Cc1nnc(C2CCCCN2C(=O)CCS)o1 (stereo unspecified)	36.6
O=C(NCCS)C(c1ccccc1)n1sc2ccccc2c1=O (stereo unspecified)	29.2
O=C(CCCc1ccc2c(c1)OCCCO2)NCCS	37.4
O=C(CCS)Nc1ccnn1Cc1ccc(Br)s1	42.2
CCN1C(=O)CO[C@H](C(=O)NCCS)[C@H]1c1ccccc1	28.4
CCC(C)C(=O)N1Cc2ccccc2CC1C(=O)NCCS (stereo unspecified)	23.4
CCc1nnc(NC(=O)C(C)C(C)NC(=O)CCS)s1 (stereo unspecified)	35.9
O=C(Cc1cc(Cl)cc2c1OCC2)NCCS	30.4
O=C(NCCS)C1CCCn2cc(C(F)(F)F)nc21 (stereo unspecified)	34.7
O=C(NCCS)C1(C2CCOCC2)CC1(F)F (stereo unspecified)	23.9
CCc1nc(-c2ccc(C(=O)NCCS)cc2)n[nH]1	42.6
O=C(CCS)N1CCC(CCN2CCCS2(=O)=O)CC1	46.8
